# Measured values as given in the supplement of paper PMC8728848.
# The list shows a part of the results.
# B1: Malectin (Xenopus laevis), Q6INX3 (protein)
# chain: SGLADKVIWAVNAGGESHVDVHGIHYRKDPLEGRVGRASDYGMKLPILRSNPEDQVLYQTERYNEDSFGYDIPIKEEGEYVLVLKFAEVYFAQSQQKVFDVRVNGHTVVKDLDIFDRVGHSTAHDEIIPISIKKGKLSVQGEVSTFTGKLSVEFVKGYYDNPKVCALFIMKGTADDVPMLQPHPGLE
# How the values were obtained:
# Assay in all cases: glycan array binding signal (z-score within array); higher = stronger binding
# Details in all cases: glycan notation: IUPAC condensed, linker removed
# [1] = target: 3-Anhydro-Gal(a1-3)Gal(b1-4)3-Anhydro-Gal(a1-3)Gal4S
# Procedure, shortened: (§1)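 Glycan array data were curated from 3228 arrays in the Consortium for Functional Glycomics database and kept only where the protein sequence was available. Glycan names were converted to IUPAC-condensed notation, and columns mapping to the same glycan were averaged. The binding signal is a within-array Z-score, averaged across arrays of the same protein sequence at different concentrations or buffers and across linkers. Negative Z-scores can be read as non-binding.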
# [2] = target: 3-Anhydro-Gal(a1-3)Gal4S(b1-4)3-Anhydro-Gal(a1-3)Gal4S
# Procedure, shortened: as §1
# [3] = target: 3-Anhydro-Gal(a1-3)Gal4S(b1-4)3-Anhydro-Gal(a1-3)Gal4S(b1-4)3-Anhydro-Gal(a1-3)Gal4S
# Procedure, shortened: as §1
# [4] = target: 3-Anhydro-Gal(a1-3)Gal4S(b1-4)3-Anhydro-Gal(a1-3)Gal4S(b1-4)3-Anhydro-Gal(a1-3)Gal4S(b1-4)3-Anhydro-Gal(a1-3)Gal4S
# Procedure, shortened: as §1
# [5] = target: 3-Anhydro-Gal(a1-3)Gal4S(b1-4)3-Anhydro-Gal2S(a1-3)Gal4S(b1-4)3-Anhydro-Gal(a1-3)Gal4S
# Procedure, shortened: as §1
# [6] = target: 3dGal(b1-3)[Fuc(a1-4)]Glc
# Procedure, shortened: as §1
# [7] = target: 3dGal(b1-4)Glc
# Procedure, shortened: as §1
# [8] = target: Ara(a1-5)Ara(a1-5)Ara(a1-5)Ara(a1-5)Ara(a1-5)Ara
# Procedure, shortened: as §1
# [9] = target: Ara(a1-5)Ara(a1-5)Ara(a1-5)Ara(a1-5)Ara(a1-5)Ara(a1-5)Ara
# Procedure, shortened: as §1
# [10] = target: Fuc(a1-2)Gal
# Procedure, shortened: as §1
# [11] = target: Fuc(a1-2)Gal(b1-3)GlcNAc(b1-3)Gal(b1-4)Glc
# Procedure, shortened: as §1
# [12] = target: Fuc(a1-2)Gal(b1-3)GlcNAc(b1-3)[Fuc(a1-3)[Gal(b1-4)]GlcNAc(b1-6)]Gal(b1-4)Glc
# Procedure, shortened: as §1
# [13] = target: Fuc(a1-2)Gal(b1-3)[Fuc(a1-4)]GlcNAc(b1-3)Gal(b1-4)Glc
# Procedure, shortened: as §1
# [14] = target: Fuc(a1-2)Gal(b1-3)[Fuc(a1-4)]GlcNAc(b1-3)Gal(b1-4)[Fuc(a1-3)]GlcNAc(b1-3)Gal(b1-4)Glc
# Procedure, shortened: as §1
# [15] = target: Fuc(a1-2)Gal(b1-3)[Fuc(a1-4)]GlcNAc(b1-3)[Fuc(a1-2)]Gal(b1-4)Glc
# Procedure, shortened: as §1
# [16] = target: Fuc(a1-2)Gal(b1-3)[Fuc(a1-4)]GlcNAc(b1-3)[Fuc(a1-3)[Gal(b1-4)]GlcNAc(b1-6)]Gal(b1-4)Glc
# Procedure, shortened: as §1
# [17] = target: Fuc(a1-2)Gal(b1-3)[Fuc(a1-4)]GlcNAc(b1-3)[Gal(b1-4)GlcNAc(b1-6)]Gal(b1-4)Glc
# Procedure, shortened: as §1
# [18] = target: Fuc(a1-2)Gal(b1-4)[Fuc(a1-3)]GlcNAc(b1-3)Gal(b1-4)Glc
# Procedure, shortened: as §1
# [19] = target: Fuc(a1-2)Gal(b1-4)[Fuc(a1-3)]GlcNAc(b1-3)[Fuc(a1-2)]Gal(b1-4)Glc
# Procedure, shortened: as §1
# [20] = target: Fuc(a1-2)[Gal(a1-3)]Gal
# Procedure, shortened: as §1
# [21] = target: Fuc(a1-2)[Gal(a1-3)]Gal(b1-4)GlcNAc(b1-3)Gal(b1-4)Glc
# Procedure, shortened: as §1
# [22] = target: Fuc(a1-2)[GalNAc(a1-3)]Gal
# Procedure, shortened: as §1
# [23] = target: Fuc(a1-2)[GalNAc(a1-3)]Gal(b1-3)GlcNAc(b1-3)Gal(b1-4)Glc
# Procedure, shortened: as §1
# [24] = target: Fuc(a1-2)[GalNAc(a1-3)]Gal(b1-3)[Fuc(a1-4)]GlcNAc(b1-3)Gal(b1-4)Glc
# Procedure, shortened: as §1
# [25] = target: Fuc(a1-2)[Neu5Ac(bond)]Gal(b1-3)GlcNAc(b1-3)Gal(b1-4)Glc
# Procedure, shortened: as §1
# [26] = target: Fuc(a1-3)GlcNAc6S
# Procedure, shortened: as §1
# [27] = target: Fuc(a1-3)[3dGal(b1-4)]Glc
# Procedure, shortened: as §1
# [28] = target: Fuc(a1-3)[Gal(b1-4)]GlcNAc
# Procedure, shortened: as §1
# [29] = target: Fuc(a1-3)[Gal(b1-4)]GlcNAc(b1-3)Gal(b1-4)Glc
# Procedure, shortened: as §1
# [30] = target: Fuc(a1-3)[Gal(b1-4)]GlcNAc(b1-3)Gal(b1-4)[Fuc(a1-3)]Glc
# Procedure, shortened: as §1
# [31] = target: Fuc(a1-3)[Gal(b1-4)]GlcNAc(b1-3)[Fuc(a1-2)]Gal(b1-4)Glc
# Procedure, shortened: as §1
# [32] = target: Fuc(a1-3)[Gal(b1-4)]GlcNAc(b1-3)[Fuc(a1-3)[Gal(b1-4)]GlcNAc(b1-6)]Gal(b1-4)Glc
# Procedure, shortened: as §1
# [33] = target: Fuc(a1-3)[Gal3S(b1-4)]Glc
# Procedure, shortened: as §1
# [34] = target: Fuc(a1-3)[Gal3S(b1-4)]GlcNAc
# Procedure, shortened: as §1
# [35] = target: Fuc(a1-3)[Gal3S(b1-4)]GlcNAc(b1-3)Gal(b1-4)Glc
# Procedure, shortened: as §1
# [36] = target: Fuc(a1-3)[Gal3S(b1-4)]GlcNAc6S(b1-3)Gal(b1-4)Glc
# Procedure, shortened: as §1
# [37] = target: Fuc(a1-3)[Gal6S(b1-4)]GlcNAc(b1-3)Gal(b1-4)Glc
# Procedure, shortened: as §1
# [38] = target: Fuc(a1-6)GlcNAc
# Procedure, shortened: as §1
# [39] = target: Gal(a1-3)Gal(b1-4)Gal(a1-3)Gal
# Procedure, shortened: as §1
# [40] = target: Gal(a1-4)Gal(b1-4)GlcNAc
# Procedure, shortened: as §1
# [41] = target: Gal(a1-4)Glc
# Procedure, shortened: as §1
# [42] = target: Gal(b1-3)GalNAc
# Procedure, shortened: as §1
# [43] = target: Gal(b1-3)GalNAc(b1-4)Gal(b1-4)Glc
# Procedure, shortened: as §1
# [44] = target: Gal(b1-3)GalNAc(b1-4)Gal3S(b1-4)Glc
# Procedure, shortened: as §1
# [45] = target: Gal(b1-3)GalNAc(b1-4)[Neu5Ac(a2-3)]Gal(b1-4)Glc
# Procedure, shortened: as §1
binder,measurement,setting,value
B1,glycan array binding signal (z-score),[1],-0.076
same,glycan array binding signal (z-score),[2],-0.076
same,glycan array binding signal (z-score),[3],-0.076
same,glycan array binding signal (z-score),[4],-0.076
same,glycan array binding signal (z-score),[5],-0.076
same,glycan array binding signal (z-score),[6],-0.076
same,glycan array binding signal (z-score),[7],-0.07
same,glycan array binding signal (z-score),[8],-0.069
same,glycan array binding signal (z-score),[9],-0.073
same,glycan array binding signal (z-score),[10],-0.064
same,glycan array binding signal (z-score),[11],-0.068
same,glycan array binding signal (z-score),[12],-0.067
same,glycan array binding signal (z-score),[13],-0.076
same,glycan array binding signal (z-score),[14],-0.072
same,glycan array binding signal (z-score),[15],-0.07
same,glycan array binding signal (z-score),[16],-0.073
same,glycan array binding signal (z-score),[17],-0.07
same,glycan array binding signal (z-score),[18],-0.076
same,glycan array binding signal (z-score),[19],-0.073
same,glycan array binding signal (z-score),[20],-0.074
same,glycan array binding signal (z-score),[21],-0.067
same,glycan array binding signal (z-score),[22],-0.076
same,glycan array binding signal (z-score),[23],-0.073
same,glycan array binding signal (z-score),[24],-0.064
same,glycan array binding signal (z-score),[25],-0.076
same,glycan array binding signal (z-score),[26],-0.075
same,glycan array binding signal (z-score),[27],-0.074
same,glycan array binding signal (z-score),[28],-0.075
same,glycan array binding signal (z-score),[29],-0.068
same,glycan array binding signal (z-score),[30],-0.076
same,glycan array binding signal (z-score),[31],-0.075
same,glycan array binding signal (z-score),[32],-0.076
same,glycan array binding signal (z-score),[33],-0.075
same,glycan array binding signal (z-score),[34],-0.076
same,glycan array binding signal (z-score),[35],-0.072
same,glycan array binding signal (z-score),[36],-0.075
same,glycan array binding signal (z-score),[37],-0.073
same,glycan array binding signal (z-score),[38],-0.073
same,glycan array binding signal (z-score),[39],-0.076
same,glycan array binding signal (z-score),[40],-0.075
same,glycan array binding signal (z-score),[41],-0.222
same,glycan array binding signal (z-score),[42],-0.075
same,glycan array binding signal (z-score),[43],-0.075
same,glycan array binding signal (z-score),[44],-0.076
same,glycan array binding signal (z-score),[45],-0.076
